From article PMC2481302
Results are given in words; binding and its absence hold for the method and conditions named. Some results given as binding are weak or reduced against the parent protein; the word gives no strength.

Chains of the proteins cited; added tags and fusions are not shown. Lines headed by an entry give the natural chain unless they say otherwise; changes in a name come on top.
UniProt P06756: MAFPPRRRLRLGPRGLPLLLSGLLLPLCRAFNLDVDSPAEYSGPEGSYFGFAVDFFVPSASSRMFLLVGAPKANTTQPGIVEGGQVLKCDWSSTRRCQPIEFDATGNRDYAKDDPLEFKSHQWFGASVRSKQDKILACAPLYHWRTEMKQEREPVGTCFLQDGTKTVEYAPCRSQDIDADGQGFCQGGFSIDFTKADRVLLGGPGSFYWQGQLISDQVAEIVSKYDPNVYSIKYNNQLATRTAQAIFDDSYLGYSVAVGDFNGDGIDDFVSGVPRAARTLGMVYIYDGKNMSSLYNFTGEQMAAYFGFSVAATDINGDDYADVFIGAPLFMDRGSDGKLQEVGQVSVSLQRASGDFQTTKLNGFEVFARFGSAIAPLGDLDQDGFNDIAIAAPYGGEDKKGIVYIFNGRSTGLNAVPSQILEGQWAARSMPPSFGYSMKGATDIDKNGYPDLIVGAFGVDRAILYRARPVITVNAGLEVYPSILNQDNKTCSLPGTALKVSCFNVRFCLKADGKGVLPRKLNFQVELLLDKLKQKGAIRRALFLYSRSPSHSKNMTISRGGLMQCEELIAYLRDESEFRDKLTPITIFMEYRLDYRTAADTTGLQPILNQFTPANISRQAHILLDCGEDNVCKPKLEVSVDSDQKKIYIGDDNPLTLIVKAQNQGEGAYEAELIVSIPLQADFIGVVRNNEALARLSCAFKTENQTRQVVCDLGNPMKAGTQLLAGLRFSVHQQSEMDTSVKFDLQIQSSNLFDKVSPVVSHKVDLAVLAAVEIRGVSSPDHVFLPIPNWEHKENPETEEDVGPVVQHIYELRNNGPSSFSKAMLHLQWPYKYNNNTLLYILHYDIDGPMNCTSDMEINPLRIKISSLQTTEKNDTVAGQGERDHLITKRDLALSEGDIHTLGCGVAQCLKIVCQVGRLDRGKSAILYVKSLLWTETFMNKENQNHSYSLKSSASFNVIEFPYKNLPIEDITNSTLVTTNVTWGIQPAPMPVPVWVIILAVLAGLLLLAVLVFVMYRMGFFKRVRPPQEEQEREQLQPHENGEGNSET
UniProt P08648: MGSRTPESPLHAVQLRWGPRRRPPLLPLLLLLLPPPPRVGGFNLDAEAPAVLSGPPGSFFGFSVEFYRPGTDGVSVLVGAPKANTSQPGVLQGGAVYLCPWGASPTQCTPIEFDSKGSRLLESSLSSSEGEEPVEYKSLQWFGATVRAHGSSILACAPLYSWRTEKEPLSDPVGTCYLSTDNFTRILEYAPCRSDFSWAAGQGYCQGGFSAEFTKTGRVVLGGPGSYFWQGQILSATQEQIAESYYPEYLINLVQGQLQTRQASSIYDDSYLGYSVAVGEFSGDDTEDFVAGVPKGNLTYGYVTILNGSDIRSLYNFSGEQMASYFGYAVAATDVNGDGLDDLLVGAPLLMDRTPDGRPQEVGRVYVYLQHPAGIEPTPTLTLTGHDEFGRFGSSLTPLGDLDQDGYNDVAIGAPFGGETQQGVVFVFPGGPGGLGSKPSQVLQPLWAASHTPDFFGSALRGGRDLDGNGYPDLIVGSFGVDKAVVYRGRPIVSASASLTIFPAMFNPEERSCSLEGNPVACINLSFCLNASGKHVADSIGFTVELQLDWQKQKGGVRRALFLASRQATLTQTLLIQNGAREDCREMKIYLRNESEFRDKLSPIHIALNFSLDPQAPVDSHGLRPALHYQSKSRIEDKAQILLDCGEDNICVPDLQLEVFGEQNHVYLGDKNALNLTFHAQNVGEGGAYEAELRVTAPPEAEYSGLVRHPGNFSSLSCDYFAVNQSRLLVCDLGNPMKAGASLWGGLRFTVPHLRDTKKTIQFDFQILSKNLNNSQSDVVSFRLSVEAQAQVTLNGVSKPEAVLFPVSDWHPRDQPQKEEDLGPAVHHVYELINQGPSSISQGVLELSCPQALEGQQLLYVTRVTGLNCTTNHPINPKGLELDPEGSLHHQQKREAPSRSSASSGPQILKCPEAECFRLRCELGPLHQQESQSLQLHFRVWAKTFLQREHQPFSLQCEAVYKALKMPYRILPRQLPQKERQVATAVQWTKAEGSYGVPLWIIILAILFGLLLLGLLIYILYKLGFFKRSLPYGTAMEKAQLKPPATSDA

How the values were obtained:
[1] = target: T1, CXCL4/CTF, synthetic peptide encompassing amino-acid sequence 47-70 of CXCL4 (human); experiment: cell attachment assay; as a2, but αvβ3-CHO cells incubated with 10 mM EDTA for 15 min before plating on CXCL4 or CXCL4/CTF; only the target purified
T1 sequence (peptide): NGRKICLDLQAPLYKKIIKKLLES

[2] = target: T2, CXCL4/CTF-S, scrambled peptide containing the amino acids of CXCL4/CTF; experiment: cell adhesion and spreading on coated coverslips; αvβ3-CHO cells or HUVECs plated for 4 h at 37°C in serum-free medium on coverslips coated with 25 µg/ml peptide; phase contrast and confocal microscopy; only the target purified
T2 sequence (peptide): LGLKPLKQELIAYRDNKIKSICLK

[3] = target: T1, CXCL4/CTF, synthetic peptide encompassing amino-acid sequence 47-70 of CXCL4 (human); experiment: cell attachment assay; αvβ3-CHO and mock-transfected CHO cells plated on microtiter wells coated with CXCL4 or CXCL4/CTF at the indicated concentrations; 60 min at 37°C in serum-free medium with 0.5% BSA; attached cells stained with Coomassie blue, absorbance at 620 nm; also with 0.25 mM Mn2+ or 2 mM Mg2+; only the target purified
[4] = target: T1, CXCL4/CTF, synthetic peptide encompassing amino-acid sequence 47-70 of CXCL4 (human); experiment: cell attachment assay; HUVECs plated on microtiter wells coated with CXCL4 or CXCL4/CTF; 60 min at 37°C in serum-free medium; the integrins were assigned with 10 µg/ml blocking anti-integrin antibodies (LM609, AV1, B3A, P1F6, JBS5, P1D6, CD29); only the target purified

Substance | binding [1] | binding [2] | binding [3] | binding [4]
human αvβ3 integrin on CHO cells (αvβ3-CHO, clone A06) (from UniProt P06756 31-1048; P05106 27-788) (receptor) | no binding (condition: with 10 mM EDTA) | no binding (tested: 25 µg/ml (coating)) | binds | 
α5β1 integrin on the surface of HUVECs (from UniProt P08648 42-1049; P05556 21-798) (receptor) |  |  |  | binds
αvβ3 integrin on the surface of HUVECs (from UniProt P06756 31-1048; P05106 27-788) (receptor) |  |  |  | binds
αvβ5 integrin on the surface of HUVECs (from UniProt P06756 31-1048; P18084 24-799) (receptor) |  |  |  | binds
